Measurements taken from US9561289 (OSPEDALE SAN RAFFAELE, dated 2017).

Key:
Assay in all cases: competitive binding assay, integrin-coated plate, probe isoDGR/STV-HRP
[1] = biological target: T1, Human integrin α5β1 (human, UniProt P08648 42-1049; P05556, limits assumed)
T1 construct: Bought from Immunological Sciences; coated on microtiter plates

[2] = biological target: T2, Recombinant human integrin αvβ8 (human, UniProt P06756 31-992; P26012 43-684)
T2 construct: Bought from R&D System; also called αvβ38 [sic]

[3] = biological target: T3, Recombinant human integrin αvβ6 (human, UniProt P06756 31-992; P18564 22-707)
T3 construct: Bought from R&D System

[4] = biological target: T4, Human integrin αvβ3 (human, UniProt P06756 31-1048; P05106 27-788, limits assumed)
T4 construct: Bought from Immunological Sciences; coated on microtiter plates or spotted on nitrocellulose; also called avb3; purified αvβ3-integrin

[5] = biological target: T5, Human integrin αvβ5 (human, UniProt P06756 31-1048; P18084 24-799, limits assumed)
T5 construct: Bought from Immunological Sciences; coated on microtiter plates

T1 sequence (P08648 42-1049 limits assumed, chain 1 of 2): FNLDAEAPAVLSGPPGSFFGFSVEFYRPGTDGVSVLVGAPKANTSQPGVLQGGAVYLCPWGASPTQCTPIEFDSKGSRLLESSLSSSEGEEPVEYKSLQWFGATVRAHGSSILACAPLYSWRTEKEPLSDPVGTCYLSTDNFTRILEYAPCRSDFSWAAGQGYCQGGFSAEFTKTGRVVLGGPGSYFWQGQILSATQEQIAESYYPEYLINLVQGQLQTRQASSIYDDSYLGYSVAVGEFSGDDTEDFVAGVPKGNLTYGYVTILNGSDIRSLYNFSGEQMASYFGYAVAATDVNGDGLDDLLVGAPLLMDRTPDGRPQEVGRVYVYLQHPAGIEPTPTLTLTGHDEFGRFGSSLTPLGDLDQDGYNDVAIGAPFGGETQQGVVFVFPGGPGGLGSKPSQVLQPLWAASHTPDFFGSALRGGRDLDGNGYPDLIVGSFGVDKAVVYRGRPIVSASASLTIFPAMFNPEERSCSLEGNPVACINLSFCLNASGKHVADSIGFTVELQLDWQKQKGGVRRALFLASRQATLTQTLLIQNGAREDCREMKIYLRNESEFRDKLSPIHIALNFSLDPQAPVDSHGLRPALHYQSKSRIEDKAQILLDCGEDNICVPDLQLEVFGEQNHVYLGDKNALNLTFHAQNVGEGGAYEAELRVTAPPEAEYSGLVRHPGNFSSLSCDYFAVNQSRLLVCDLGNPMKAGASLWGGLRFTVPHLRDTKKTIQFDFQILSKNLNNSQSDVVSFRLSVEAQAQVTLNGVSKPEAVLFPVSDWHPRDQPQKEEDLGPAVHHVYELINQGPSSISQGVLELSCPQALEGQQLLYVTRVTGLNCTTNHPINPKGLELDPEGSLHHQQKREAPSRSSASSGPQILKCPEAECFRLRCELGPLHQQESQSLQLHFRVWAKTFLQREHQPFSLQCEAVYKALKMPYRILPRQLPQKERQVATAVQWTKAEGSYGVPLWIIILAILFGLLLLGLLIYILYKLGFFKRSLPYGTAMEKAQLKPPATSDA
T1 sequence (P05556 21-798 limits assumed, chain 2 of 2, further chain): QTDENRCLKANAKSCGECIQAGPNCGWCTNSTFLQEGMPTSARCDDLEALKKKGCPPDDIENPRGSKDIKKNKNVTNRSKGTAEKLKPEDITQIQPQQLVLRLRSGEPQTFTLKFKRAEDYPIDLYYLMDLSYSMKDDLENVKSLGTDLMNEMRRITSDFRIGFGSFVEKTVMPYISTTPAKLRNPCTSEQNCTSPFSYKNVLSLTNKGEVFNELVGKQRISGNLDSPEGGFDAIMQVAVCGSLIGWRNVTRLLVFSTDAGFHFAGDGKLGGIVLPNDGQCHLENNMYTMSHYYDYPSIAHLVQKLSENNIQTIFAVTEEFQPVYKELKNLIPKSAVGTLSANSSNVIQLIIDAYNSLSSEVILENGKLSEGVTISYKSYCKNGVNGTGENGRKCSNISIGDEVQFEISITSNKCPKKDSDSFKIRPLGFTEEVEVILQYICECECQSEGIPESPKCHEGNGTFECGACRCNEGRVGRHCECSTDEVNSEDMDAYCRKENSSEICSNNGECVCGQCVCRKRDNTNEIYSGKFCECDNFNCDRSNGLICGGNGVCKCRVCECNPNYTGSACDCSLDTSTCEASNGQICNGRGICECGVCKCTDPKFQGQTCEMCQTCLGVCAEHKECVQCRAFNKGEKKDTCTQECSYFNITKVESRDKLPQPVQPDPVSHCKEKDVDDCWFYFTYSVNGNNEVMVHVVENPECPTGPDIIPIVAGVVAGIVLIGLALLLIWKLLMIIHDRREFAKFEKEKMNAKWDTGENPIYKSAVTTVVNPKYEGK

| Binder | Ki [1] [nM] | ratio of integrin Ki/αvβ3 Ki [1] | Ki [2] [nM] | ratio of integrin Ki/αvβ3 Ki [2] | Ki [3] [nM] | ratio of integrin Ki/αvβ3 Ki [3] | Ki [4] [nM] | ratio of integrin Ki/αvβ3 Ki [4] | Ki [5] [nM] | ratio of integrin Ki/αvβ3 Ki [5] |
| --- | --- | --- | --- | --- | --- | --- | --- | --- | --- | --- |
| isoDGR#1-AV(9:1) (other, amino groups carrying SMCC linker; isoaspartate (isoD) at position 3; head-to-tail cyclized; Cys thiol joined to the SMCC linker on avidin, also called isoDGR#1-avidin conjugate) peptide: CGDGRG ARKCSLTGKWTNDLGSNMTIGAVNSRGEFTGTYITAVTATSNEIKESPLHGTQNTINKRTQPTFGFTVNWKFSESTTVFTGQCFIDRNGKEVLKTMWLLRSSVNDIGDDWKATRVGINIFTRLRTQKE | 96 | 96 | 382 | 382 | 23 | 23 | 1 | 1 | 3.9 | 3.9 |
| *AV(0:1) (other, UniProt P02701 25-152, looked up, amino groups carrying SMCC linker, no peptide, Control lacking the peptide; also called linker-avidin) ARKCSLTGKWTNDLGSNMTIGAVNSRGEFTGTYITAVTATSNEIKESPLHGTQNTINKRTQPTFGFTVNWKFSESTTVFTGQCFIDRNGKEVLKTMWLLRSSVNDIGDDWKATRVGINIFTRLRTQKE |  |  | 1460 |  |  |  |  |  |  |  |
